We go through 57 compounds from PubChem BioAssay AID463173 (ICCB-Longwood Screening Facility, Harvard Medical School, 2010).

Hit rate of the full screen: of about 52,000 compounds, about 4,300 (8.3%) were called active. Cut-off read from the data, not from the text of the source: active = survival mostly below about 52% (no sharp cut-off); inactive = mostly above about 56%. The list shows a part of the results.

For this test, the system named is DeltatarO mutant. As to the kind of experiment: S. aureus survival, RN4220 and DeltatarO strains – OD600, teichoic acid synthesis inhibitors, primary screen (AID 463173). Conditions: S. aureus RN4220 wild type/DeltatarO growth, OD600, 18 h, stronger effect = lower value, screened at 18.75 µg/mL (by protocol).
For `CCN(CC)CC(=O)Oc1ccc(NC2=NS(=O)(=O)c3ccccc32)cc1`, the survival is inactive: 96%.
As for `COc1ccccc1N1CCN(S(=O)(=O)CCNC(=O)COc2ccc(F)cc2)CC1`, the figure is inactive: 102%; as for `Cc1ccc(CNC(=O)Cn2c(=O)cc(-c3ccccc3)c3c(C)nn(C)c32)cc1`, inactive: 89%.
With `Cc1c(C(=O)NCCc2ccccc2)cccc1-n1cnc2cccnc21`, the survival was inactive: 75%.
As for `CCc1ccc(NC(=O)CC2C(=O)N(c3ccc(OC)cc3)C(=O)N2Cc2ccc(OC)cc2)cc1` (configuration not stated), the figure is inactive: 100%; as for `COc1ccc(CCNc2ncnc3c2c(-c2ccccc2)cn3-c2cccc(Cl)c2)cc1OC`, inactive: 69%; as for `CS(=O)(=O)NCc1nnc(SCC(=O)NC2CCCCC2)n1-c1ccc(F)cc1`, inactive: 68%.
Take `Cc1cc(F)c(F)cc1C(=O)N1CCN(C)CC1`: the survival was inactive: 71%.
As for `Cc1cc(C)cc(NC(=O)CN2C(=O)CSc3ccc(S(=O)(=O)N4CCCC4)cc32)c1`, the figure is inactive: 85%; as for `CCOc1ccc(NC(=O)Cn2c(=O)n(Cc3ccccc3)c(=O)c3sc4ccccc4c32)cc1`, inactive: 74%.
With `N#Cc1ccc(-c2cccnc2)n(CC(=O)NCc2ccccc2)c1=O`, the survival is inactive: 90%.
As for `Cc1cc(CN2CCC(C)CC2)cc(C)c1O`, the figure is inactive: 104%; as for `Cc1nn(CC(=O)N2CCN(c3ccccc3)CC2)c(=O)c2cc3cc(F)ccc3n12`, inactive: 89%; as for `CC1=C(c2ccc(C(C)C)cc2)S(=O)(=O)N=C1N1CCC(C(=O)NCc2ccco2)CC1`, inactive: 79%.
With `CCOC(=O)c1c(NC(=O)CSc2cn(CCNC(=O)c3ccccc3OC)c3ccccc23)sc2c1CCCC2`, the survival was inactive: 77%.
In the case of `O=C(NCC1CCN(Cc2cccc(F)c2)CC1)c1cc2ccc3cccnc3c2[nH]1`, the survival is inactive: 70%.
The result for `Nc1n[nH]c(-c2ccc(Cl)cc2)c1Cl` reads inactive: 93%; that for `Cc1ccc(NCc2ccccc2-c2nnc(-c3ccccc3Cl)o2)cc1Cl`, inactive: 76%; that for `COc1ccc(N2C(=O)CSC23C(=O)N(CC(=O)NCc2ccccc2)c2ccccc23)cc1` (configuration not stated), inactive: 94%.
Consider `CS(=O)(=O)NCCc1csc2nc(-c3ccccc3)nn12`, for which the survival is active: -2%.
Regarding `C/C(=N\NC(N)N)C1CCCCCCCCCCC1`, the survival is active: 0%.
The result for `COc1ccc(S(=O)(=O)NC2(C(F)(F)F)NC(=O)N(CCc3ccc(OC)c(OC)c3)C2=O)cc1` (configuration not stated) reads inactive: 143%; that for `COc1cc(C2C(C(=O)OC(C)C)=C(C)N=C3SCCC(=O)N32)ccc1OCc1ccccc1` (configuration not stated), inactive: 66%.
As for `COc1ccc(NC(=O)NCc2cccn2Cc2ccc(F)cc2)cc1OC`, the figure is inactive: 95%; as for `COc1cccc(NC(=O)N(Cc2cn(C)c3ccccc23)C2CCCCC2)c1`, active: -12%.
The result for `COc1ccc(OC)c(NC(=O)c2c(NCc3ccc(C)o3)sc3c2CCCCC3)c1` reads inactive: 68%; that for `Cc1cc(=O)n(Cc2ccc(F)cc2Cl)c2c1c(C)nn2-c1ccccc1`, inactive: 96%; that for `COc1ccccc1CNC(=O)C1CCN(S(=O)(=O)c2c(C)noc2/C=C/c2cccs2)CC1`, inactive: 59%.
On to `CCn1c(=O)c2sccc2n2c(CCCC(=O)N3CCN(c4cc(C)ccc4C)CC3)nnc12`, for which the survival is inactive: 95%.
As for `Cc1ccn2c(=O)c(C(=O)NCCc3ccc(S(N)(=O)=O)cc3)c(O)nc2c1`, the survival was inactive: 66%.
The result for `Cc1ccc2onc(CC(=O)Nc3cc(F)ccc3F)c2c1` reads inactive: 48%.
The result for `Cc1ccc(-c2cc(C(F)(F)F)n3nc(C(=O)Nc4sc5c(c4C#N)CCC(C)C5)cc3n2)cc1` (configuration not stated) reads inactive: 95%; that for `O=C(CSc1nnc2scc(-c3ccc(Cl)cc3)n12)Nc1ccccc1F`, inactive: 62%.
The result for `COC(=O)c1c(SC)nc2ccccc2c1OCc1ccc(C)cc1C` reads active: 46%; that for `COc1cc(C(=O)Nc2ccc(Cl)c(-c3nc4ncccc4o3)c2)cc(OC)c1OC`, inactive: 123%; that for `Cc1ccc(C)c(-c2nn(CC(=O)Nc3cc(F)ccc3F)c(=O)c3c2CCCC3)c1`, active: 41%.
In the case of `CCOc1cccc(CC(=O)N2CCc3c([nH]c4ccccc34)C2c2ccc(C)cc2)c1OCC` (configuration not stated), the survival was inactive: 75%.
As to `CC(CNC(=O)c1ccc(CSc2nc3ccncc3n2Cc2cccc(F)c2)cc1)c1ccccc1` (configuration not stated), the survival was inactive: 85%.
Turning to `COc1ccc(C(=O)Nc2ccc3c(c2)N(C2CCCC2)C(=O)c2ccccc2S3)cc1OC`, the survival is inactive: 76%.
The result for `O=C(NCCc1ccccc1)C(=O)NCC(c1cccnc1)N1CCN(c2ccccc2)CC1` (configuration not stated) reads inactive: 51%; that for `O=C(COc1ccc(S(=O)(=O)N2CCCC2)cc1)N1CCCC1`, inactive: 91%; that for `N#Cc1c(/N=C/c2cccnc2)sc2c1CCC2`, inactive: 100%.
The result for `CC1(C)CC(=O)C(C=NC2CC(C)(C)NC(C)(C)C2)=C(O)C1` reads inactive: 92%; that for `CC(=O)c1ccc(N2CCN(S(=O)(=O)c3cc(-c4onc(C)c4C)ccc3C)CC2)cc1`, inactive: 84%; that for `Cc1cccc2c1-c1sc(C(=O)N3CCN(c4ccc(F)cc4)CC3)cc1CO2`, inactive: 71%.
As for `Cc1ccccc1CNC(=O)CCCn1c(=O)c2cccn2c2ccccc21`, the figure is inactive: 68%; as for `O=C(Cn1cc(S(=O)(=O)N2CCN(c3ccccc3F)CC2)c2ccccc2c1=O)Nc1cccc(C(F)(F)F)c1`, inactive: 78%.
On to `CC12CC(C)(C)C(C#N)(C(N)=C1C#N)C(=C(C#N)C#N)N2` (configuration not stated), for which the survival was inactive: 86%.
The result for `O=C(COCc1nc2ccccc2c(=O)[nH]1)NCC1CCCCC1` reads inactive: 52%; that for `CC(=O)Nc1ccc(C(=O)N2CCCC2)cc1`, inactive: 67%.
As for `Cc1nc2ccn(Cc3cccnc3)c(=O)c2cc1C(=O)NCc1ccc(Cl)cc1`, the figure is inactive: 69%; as for `COc1ccccc1CNC(=O)CCCn1nc(C)c2c(C)n(-c3ccc(C)cc3)nc2c1=O`, inactive: 71%.
Take `CCOc1ccc(CNC(=O)CCn2c(=O)c3cccn3c3cccnc32)cc1`: the survival is inactive: 85%.
The result for `Cc1ccc(/C(C#N)=C\c2cccs2)cc1` reads inactive: 113%.
Consider `O=C(CSc1nc(=O)n(Cc2ccco2)c2c1CCC2)NCc1ccccc1Cl`, for which the survival was inactive: 94%.
As for `CCOc1ccc(N2CC(NC(=O)c3ccc(S(=O)(=O)N4CCOCC4)cc3)CC2=O)cc1` (configuration not stated), the figure is active: 47%.
As for `N#Cc1ccc(NC(=O)COCc2cc(-c3ccc4c(c3)OCO4)on2)cc1`, the figure is inactive: 94%.
